Reference: PMC7826282 (Nucleic Acids Research, 2020)

Target: T1, 3xFLAG-FL-NOPCHAP1 (human, UniProt Q8N5I9 1-185)
T1 sequence (looked up): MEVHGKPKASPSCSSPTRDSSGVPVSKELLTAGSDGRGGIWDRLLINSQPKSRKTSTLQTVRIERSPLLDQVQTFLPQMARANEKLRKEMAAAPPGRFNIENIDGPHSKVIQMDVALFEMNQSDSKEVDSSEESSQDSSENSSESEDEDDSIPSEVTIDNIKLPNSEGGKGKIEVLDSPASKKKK
Assay: co-IP

B1: RL-RUVBL1-K76M (natural protein)
chain: not shown
B1 gave a co-IP efficiency of 3.7%.

B2: RL-RUVBL[…]Q (natural protein)
chain: not shown
B2 showed a co-IP efficiency of 0.16%.
